{
  "source": "the supplement of paper PMC10126150",
  "note": "Values marked as one replicate rest on one cluster of the flow cell; about a third of the high ones do not repeat.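 Further: ATP exposure 15 min at 22 °C before imaging.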",
  "data": [
    {"tested_on": "ATP", "assay": "switch fluorescence ratio, 500 uM ATP over buffer (Cy3 cluster intensity, sum of 5 cycles each) (fold (ratio)); higher = stronger signal-on switching upon ATP binding; sequences stand for … in TCGTCGGCAGCGTCAGATGTGTATAAGAGACAGTTTTTTTTTTTTTTTTTTTTTTTTT…TC", "settings": "aptamer strand: ATP DNA aptamer (quencher-CACCTGGGGGAGTATTGCGGAGGAAGG + anchor), 100 nM annealed; ATP concentration: 500 uM; one replicate", "method_in_brief": "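Switching-strand clusters labelled with Cy3 on a modified Illumina MiSeq flow-cell were annealed to 100 nM quencher-labelled ATP aptamer, imaged in selection buffer, and re-imaged after 15 min with 500 uM ATP at 22 °C. This was done over five cycles with NaOH stripping and re-annealing in between. The fluorescence ratio is summed target-cycle over summed buffer-cycle Cy3 intensity per cluster, averaged per switch-domain sequence, excluding clusters outside 100-1000 RFU.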", "values": [
      {"sequence": "CAAATAGTTC", "switch fluorescence ratio": 0.952},
      {"sequence": "CAAATATGAA", "switch fluorescence ratio": 0.974},
      {"sequence": "CAAATATTTG", "switch fluorescence ratio": 0.979},
      {"sequence": "CAAATCCTAG", "switch fluorescence ratio": 0.956},
      {"sequence": "CAAATCCTGC", "switch fluorescence ratio": 1.04},
      {"sequence": "CAAATGGAT", "switch fluorescence ratio": 1.05},
      {"sequence": "CAAATTAGCC", "switch fluorescence ratio": 0.976},
      {"sequence": "CAAATTCATT", "switch fluorescence ratio": 1.04},
      {"sequence": "CAAATTGAGG", "switch fluorescence ratio": 0.972},
      {"sequence": "CAAATTGTTT", "switch fluorescence ratio": 0.965},
      {"sequence": "CAAATTTATG", "switch fluorescence ratio": 0.949},
      {"sequence": "CAACAAAGG", "switch fluorescence ratio": 0.981},
      {"sequence": "CAACAACATC", "switch fluorescence ratio": 0.983},
      {"sequence": "CAACACCGCC", "switch fluorescence ratio": 1.36},
      {"sequence": "CAACAGGGAG", "switch fluorescence ratio": 1.06},
      {"sequence": "CAACAGTGGA", "switch fluorescence ratio": 0.991},
      {"sequence": "CAACATTACA", "switch fluorescence ratio": 1.21},
      {"sequence": "CAACCCTGCT", "switch fluorescence ratio": 0.966},
      {"sequence": "CAACCGTCTT", "switch fluorescence ratio": 1.09},
      {"sequence": "CAACCGTTGA", "switch fluorescence ratio": 1.02},
      {"sequence": "CAACCTGTGG", "switch fluorescence ratio": 1.18},
      {"sequence": "CAACGAGTTA", "switch fluorescence ratio": 0.986},
      {"sequence": "CAACGCTTGC", "switch fluorescence ratio": 2.63},
      {"sequence": "CAACGGGTGG", "switch fluorescence ratio": 1.06},
      {"sequence": "CAACGTTGAC", "switch fluorescence ratio": 1.05},
      {"sequence": "CAACTACTAT", "switch fluorescence ratio": 1.1},
      {"sequence": "CAACTGGTGA", "switch fluorescence ratio": 1.08},
      {"sequence": "CAACTTGACG", "switch fluorescence ratio": 0.907},
      {"sequence": "CAACTTGATC", "switch fluorescence ratio": 0.986},
      {"sequence": "CAACTTTTTT", "switch fluorescence ratio": 1.03},
      {"sequence": "CAAGAAAAAA", "switch fluorescence ratio": 1.01},
      {"sequence": "CAAGAAGAA", "switch fluorescence ratio": 0.97},
      {"sequence": "CAAGAAGAAA", "switch fluorescence ratio": 1.01},
      {"sequence": "CAAGACGTAT", "switch fluorescence ratio": 1.01},
      {"sequence": "CAAGATCGAA", "switch fluorescence ratio": 0.984},
      {"sequence": "CAAGCAAATG", "switch fluorescence ratio": 1.14},
      {"sequence": "CAAGCG", "switch fluorescence ratio": 1.02},
      {"sequence": "CAAGCGGGTC", "switch fluorescence ratio": 1.02},
      {"sequence": "CAAGCTGTCG", "switch fluorescence ratio": 1.01},
      {"sequence": "CAAGGACAT", "switch fluorescence ratio": 1.02},
      {"sequence": "CAAGGCGGTC", "switch fluorescence ratio": 1.04},
      {"sequence": "CAAGGGAGCG", "switch fluorescence ratio": 0.969},
      {"sequence": "CAAGGGATT", "switch fluorescence ratio": 0.988},
      {"sequence": "CAAGGGGCTA", "switch fluorescence ratio": 1.19},
      {"sequence": "CAAGGTCCTG", "switch fluorescence ratio": 0.979},
      {"sequence": "CAAGGTCTGC", "switch fluorescence ratio": 1.01},
      {"sequence": "CAAGTAATTT", "switch fluorescence ratio": 1.04},
      {"sequence": "CAAGTACAT", "switch fluorescence ratio": 1.28},
      {"sequence": "CAAGTCGTCT", "switch fluorescence ratio": 1.06},
      {"sequence": "CAAGTCTGAG", "switch fluorescence ratio": 0.945},
      {"sequence": "CAAGTGTATT", "switch fluorescence ratio": 0.999},
      {"sequence": "CAAGTGTTT", "switch fluorescence ratio": 1.02},
      {"sequence": "CAAGTTCGGA", "switch fluorescence ratio": 1.01},
      {"sequence": "CAAGTTGAGT", "switch fluorescence ratio": 0.994},
      {"sequence": "CAATAAGTGG", "switch fluorescence ratio": 0.999},
      {"sequence": "CAATAATCAG", "switch fluorescence ratio": 1.01},
      {"sequence": "CAATAATTAC", "switch fluorescence ratio": 1.06},
      {"sequence": "CAATACGGTG", "switch fluorescence ratio": 1.4},
      {"sequence": "CAATACTATG", "switch fluorescence ratio": 1.04},
      {"sequence": "CAATCAAAGT", "switch fluorescence ratio": 1.01},
      {"sequence": "CAATCAAGTA", "switch fluorescence ratio": 1.03},
      {"sequence": "CAATCAGCAG", "switch fluorescence ratio": 1.12},
      {"sequence": "CAATCCCAGG", "switch fluorescence ratio": 4.46},
      {"sequence": "CAATCCCGGA", "switch fluorescence ratio": 1},
      {"sequence": "CAATCGCCTG", "switch fluorescence ratio": 0.984},
      {"sequence": "CAATCGGACG", "switch fluorescence ratio": 1.05},
      {"sequence": "CAATCGTCCT", "switch fluorescence ratio": 0.996},
      {"sequence": "CAATCTCCGA", "switch fluorescence ratio": 1.06},
      {"sequence": "CAATGAAATA", "switch fluorescence ratio": 1.02},
      {"sequence": "CAATGACATT", "switch fluorescence ratio": 1.03},
      {"sequence": "CAATGCTGAA", "switch fluorescence ratio": 0.993},
      {"sequence": "CAATGGTCTC", "switch fluorescence ratio": 1.03},
      {"sequence": "CAATGGTCTG", "switch fluorescence ratio": 0.983},
      {"sequence": "CAATGGTTCG", "switch fluorescence ratio": 1.01},
      {"sequence": "CAATTACTAC", "switch fluorescence ratio": 1.1},
      {"sequence": "CAATTAGCAA", "switch fluorescence ratio": 2.01},
      {"sequence": "CAATTCAGCA", "switch fluorescence ratio": 1.03},
      {"sequence": "CAATTCGCGC", "switch fluorescence ratio": 1.05},
      {"sequence": "CAATTCGTAG", "switch fluorescence ratio": 1.03},
      {"sequence": "CAATTTAGCT", "switch fluorescence ratio": 1.01},
      {"sequence": "CAATTTCGGG", "switch fluorescence ratio": 1.01},
      {"sequence": "CAATTTGCGC", "switch fluorescence ratio": 1.03},
      {"sequence": "CAATTTTCT", "switch fluorescence ratio": 1.02},
      {"sequence": "CAATTTTGTC", "switch fluorescence ratio": 1.03},
      {"sequence": "CACAAAGTTC", "switch fluorescence ratio": 1.08},
      {"sequence": "CACAATCTG", "switch fluorescence ratio": 0.999},
      {"sequence": "CACAATGCGA", "switch fluorescence ratio": 1.85},
      {"sequence": "CACAATGTCA", "switch fluorescence ratio": 1.03},
      {"sequence": "CACACAAGGC", "switch fluorescence ratio": 1.18},
      {"sequence": "CACACCGGCG", "switch fluorescence ratio": 1.03},
      {"sequence": "CACAGCGATT", "switch fluorescence ratio": 1.24},
      {"sequence": "CACAGCGCCC", "switch fluorescence ratio": 1.11},
      {"sequence": "CACAGCGGGA", "switch fluorescence ratio": 0.986},
      {"sequence": "CACAGGGGCT", "switch fluorescence ratio": 1.65},
      {"sequence": "CACAGGGGGT", "switch fluorescence ratio": 1.17},
      {"sequence": "CACAGTCGCT", "switch fluorescence ratio": 0.993},
      {"sequence": "CACAGTGCGG", "switch fluorescence ratio": 1.03},
      {"sequence": "CACATAGAAG", "switch fluorescence ratio": 1.01},
      {"sequence": "CACATCATAA", "switch fluorescence ratio": 1.02},
      {"sequence": "CACATCGAAT", "switch fluorescence ratio": 0.997},
      {"sequence": "CACATCTGAA", "switch fluorescence ratio": 1.02}
    ]}
  ]
}
